Assay results reported in the supplement of paper PMC11417369.
± gives the standard deviation of the averaged measurements. Some of the results follow.

tested on: PfAP2-EXP AP2 domain (GST-tagged); assay: gcPBM binding intensity (ln(normalized median fluorescence intensity)); higher = stronger DNA binding
Outline: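 The binding buffer was 1× PBS containing 1% milk, 0.2 mg/ml BSA, 0.5% salmon testes DNA and 0.03% Triton X-100. In it, GST-tagged P. falciparum DNA-binding domains expressed in E. coli were applied for 1 h to an Agilent 4 × 180k array of primer-extended double-stranded 36-bp intergenic genomic probes plus negative controls. Binding intensity, read with Alexa488 anti-GST antibody and a 488 nm scan, is the highest Masliner-normalised natural-log median intensity across replicate spots of either probe orientation.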

Row | Sequence | gcPBM binding intensity (ln)
1 | TTTTTATAAATAATAAGGCGTATGAAAATAAAATAA [TGCATGCA_negctrl_site421] | 8.72 ± 0.26
2 | AAACTGAAAAAAATATGTACATATTTATATCTTATA [XGTACX_site3011] | 8.44 ± 0.29
3 | TAAAGCAACTGAAACACACAAATTTTTTTTTTTTTT [CACACA_site7499] | 8.29 ± 0.13
4 | ATTGTATAAAAATGTACATGCAATAAATTTAGTTCT [TGCATGCA_site675] | 8.92 ± 0.23
5 | TAGTATAATATATATTGTACGTTTTAATTGTTTATA [XGTACX_site2731] | 8.25 ± 0.35
6 | GAAACGTTTTTTCAGTGTACATTTTACCGATTTGTA [XGTACX_site8249] | 8.89 ± 0.5
7 | AAAAAAAAAAAACACACACACAAATACAAATACATA [CACACA_site415] | 8.68 ± 0.49
8 | TTGAGCCTACAAAAGGGTACACATTCAATTTATTTT [XGTACX_site6570] | 8.39 ± 0.4
9 | ATATTTTGTTATGAAACACACACATATATATATATA [CACACA_site9216] | 10.1 ± 0.16
10 | AAAAAAAAAAGAAATTGTACTTTTTGTTTAATAATT [XGTACX_site4681] | 8.26 ± 0.48
11 | ATTATATACAAATAAAGTACATAAACAAATTCAGAA [XGTACX_site1187] | 8.7 ± 0.31
12 | TATTTCAAACTGTTCTCACACACGAAATTAGAAATG [CACACA_site611] | 8.42 ± 0.42
13 | ATAAAATGATGTATCTGTGTATGTTTATTTTGTTTT [XGTACX_negctrl_site367] | 8.4 ± 0.26
14 | ATTCCAGAAATATATTAACAAGGAAAATATAAAAAT [CACACA_negctrl_site343] | 8.63 ± 0.5
15 | TTTTGAATATGGATCTTATATATATTAAATAAATAA [CACACA_negctrl_site344] | 7.95 ± 0.48
16 | ATATATATTATATATGCATGCCAAATCTTTATAAAC [TGCATGCA_site1042] | 9.14 ± 0.52
17 | ACATATATATATATATATATATATATATATAGATAG [CACACA_negctrl_site783] | 9.055 ± 0.064
18 | ATAAAGAAATTACACACATGCAATGAAAAAAAAAAA [TGCATGCA_site406] | 8.88 ± 0.35
19 | AAAACTAAATGTTATTCGCACACGGAATTTATTTAA [CACACA_site9221] | 8.35 ± 0.42
20 | ACAAAAAAATATTTATGTACTTATTATATTTATAAT [XGTACX_site2059] | 8.15 ± 0.3
21 | CTTTTTACTTAATACACACACACACTAAAAAAAAAA [CACACA_site6574] | 8.65 ± 0.51
22 | TACTAAGAAGTATTTACACACCAACAAGGCGAAAAA [CACACA_site2944] | 8.56 ± 0.44

Row | Sequence | gcPBM binding intensity (ln)
23 | ATATGTATAAAAATCCGTACATAAGTGTGCGTATAT [XGTACX_site4376] | 8.57 ± 0.092
24 | ATGTTTGAGCCTAAGGTGCATATAAAAATATATGTG [GTGCAC_site9690] | 8.81 ± 0.042
25 | ATAAATAATATGTAAACACACAAAAAATAAAAATGA [CACACA_site1178] | 8.7 ± 0.45
26 | TATGGGTATGTATTCACACATAACAAAAATATCAAA [CACACA_site5059] | 8.72 ± 0.42
27 | ATATATATATATAACACACGCAAAAAAATTAAATAA [CACACA_site1400] | 9.96 ± 0.11
28 | CAAAGACACAAACACACACACACATACATACATACA [CACACA_site453] | 9.29 ± 0.29
29 | TTTTATATATTCAATTGTACATGTATTTTTTTTTTT [XGTACX_site3584] | 8.72 ± 0.47
30 | ATAAATTTACTTGATTGTACATTTCTTAGTTGTATT [XGTACX_site3057] | 8.54 ± 0.33
31 | CACAAGAAAGTTCACACACACACATATATATATATA [CACACA_site6009] | 10.2 ± 0.18
32 | TATACTGATAAAAAAAGTACTAGAGTTTGTAAAAAT [XGTACX_site3934] | 8.7 ± 0.43
33 | AATTTTAATTTTTTGACACACATATAATATATATAT [CACACA_site3978] | 9.155 ± 0.049
34 | TTATATGTCAATTTGCGTACATACATAATTACATAT [XGTACX_site1546] | 8.735 ± 0.021
35 | ATAAGGTTACAACAAACACACAAAGGAATATACGCA [CACACA_site4090] | 9.06 ± 0.47
36 | AAGAAGAATAGGCGTTGTACGGAATGTAGTAGAGTT [XGTACX_site2430] | 9.28 ± 0.45
37 | TTAATATAAATATGATTTTTGATTCCTATACTATTT [CACACA_negctrl_site752] | 8.15 ± 0.3
38 | TTGTATTCATATGGTTGTACATATTAAAAGTTCTAA [XGTACX_site7255] | 8.49 ± 0.3
39 | TTTATTTATAGAATTACACACATATATACACAAATG [CACACA_site7338] | 8.6 ± 0.39
40 | TTTATTTTTAAAGGCACACACATTTTTATTTTTAAA [CACACA_site2021] | 8.42 ± 0.21
41 | TTCTTTTTTTTCAGTTGTACTTATAAGAAAGAAAAA [XGTACX_site4028] | 8.36 ± 0.47
42 | AATATAAATATAGGAAATGTAGTTAAAAGGTGTATG [CACACA_negctrl_site1233] | 8.79 ± 0.54
43 | TTATTATAAATAGGTAGTACATTTTGAACAAATATT [XGTACX_site8866] | 8.465 ± 0.064
44 | ATATATATAACAAAAGTGCATTAAGGGGATGCTATA | 8.91 ± 0.15

Row | Sequence | gcPBM binding intensity (ln)
45 | AATTATGGGGAAAAGACACACATATATATATATATA [CACACA_site2589] | 10.3 ± 0.31
46 | TATGCAAGGAACCACACACACACACGGAAATGTATA [CACACA_site6490] | 8.7 ± 0.6
47 | ATACGACAAATATAAAGTACAAGCTTGGTTTTTATA [XGTACX_site8103] | 8.6 ± 0.56
48 | TTATATATATATGTATGTACTTATAACTTTTATTAG [XGTACX_site3190] | 8.41 ± 0.37
49 | ATTCTATAGAAACACACACACATGCATGCACCTATA [CACACA_site107] | 9.95 ± 0.17
50 | AAAAAGAAGATGCAAACATGCACACAGAAAAAAAAA [TGCATGCA_site375] | 8.81 ± 0.4
51 | TTTTCATTCCACAACGCACACCCATTTAAAAAAAAA [CACACA_site1377] | 8.78 ± 0.3
52 | TAATTTTTTTTTTTTTTTTTTTTTTTTTTTTTTTTA [CACACA_negctrl_site1218] | 7.63 ± 0.56
53 | TTTTTTTTTTGAATATGTACTTAAAAAAATTTTTTT [XGTACX_site3851] | 8.48 ± 0.45
54 | CTATTATAAAAATGATGTACACTTATATATACATAT [XGTACX_site6087] | 8.51 ± 0.4
55 | AAAAAAAAAAAAATTACACACATACAGATAATAATA [CACACA_site5244] | 8.54 ± 0.54
56 | ATAACATGAACATATGTTACACAAACATACATACAT [XGTACX_negctrl_site365] | 8.77 ± 0.22
57 | AATCAAATATTTAAATGTACTCAAGAAGGCTTAATC [XGTACX_site6907] | 8.6 ± 0.4
58 | AAAAAATATTTTAGTGGTACATTTGTAGCTCTCAAA [XGTACX_site4859] | 8.39 ± 0.4
59 | GAAAAAAAAAAAAAAAAACACACGGTACATTCAAAG [CACACA_site303] | 8.5 ± 0.58
60 | TATGAAGACACAAATACACACACTCAAAAAAAAAAA [CACACA_site2660] | 8.45 ± 0.54
61 | AAAAATATAATATAATGTACACAAAAAAAAAAAATC [XGTACX_site1427] | 8.73 ± 0.49
62 | AAATTATAATTAGGAACACACATATATATATATATA [CACACA_site3098] | 10.1 ± 0.33
63 | TACATGTATAATATAATACACACTATATAATATACA [CACACA_site2239] | 8.32 ± 0.35
64 | TACATACATACATACATACACACATATATATATATA [CACACA_site1996] | 10.1 ± 0.57
65 | ATCAAACAAAAAATAAAAAAATGCGACATGTGTACA [TGCATGCA_negctrl_site164] | 8.94 ± 0.65
66 | TTGAATACATATATATGTACATATTCTATGGTTAGA [XGTACX_site4088] | 8.59 ± 0.18

Row | Sequence | gcPBM binding intensity (ln)
67 | CAAGGACAATTTACAAACATAATATATGTATATATA [TGCATGCA_negctrl_site5] | 8.3 ± 0.39
68 | TATAAAATTTAAATTATACACACTTAAGTAACATCA [CACACA_site531] | 8.74 ± 0.35
69 | GAAAATTATGTATATTGTACAAATATTATATTAAAT [XGTACX_site2467] | 8.54 ± 0.33
70 | TTAATATTTTTAATTTGTACATATAATTAAATCTCT [XGTACX_site1736] | 8.31 ± 0.47
71 | ATTATCTTCAAGTATGTACACACTATATATAATAAA [CACACA_site2441] | 8.66 ± 0.38
72 | CTGAGGAAGCTAATTACACACATGCATATTTTTTTT [CACACA_site2177] | 8.87 ± 0.54
73 | TGGTGTTTTTTTTAATGTACTTATAAAATAATACAT [XGTACX_site6574] | 8.58 ± 0.34
74 | TTTTTTTTACATGAACGTACATAATATATTTTATAA [XGTACX_site5249] | 8.48 ± 0.44
75 | ATGTAAAAATAAAGATGTACATGTATATATATATAT [XGTACX_site5193] | 10.1 ± 0.24
76 | CCTATAATTAGGGGTAGTACACAAAAAAAAAAAAAA [XGTACX_site6396] | 8.37 ± 0.49
77 | AATATATATTCATGTGTACACACAAAAAAAAATAAA [CACACA_site8690] | 8.77 ± 0.31
78 | TTAAAAAAGAATTGTGCACACACAAAAAATGTTCAT [CACACA_site1102] | 8.46 ± 0.29
79 | AATTCCTTATACAATTGTACATAAAAAGAATAAAAA [XGTACX_site1343] | 8.67 ± 0.41
80 | CATTTTTTAAGCATCACACACGAAAGAACAAAGTGG [CACACA_site4755] | 9.04 ± 0.58
81 | TTTTTTTTTTTAAGGTGTACAATAAAAATTTATGCA [XGTACX_site8860] | 8.52 ± 0.18
82 | TGGAAAATTATAAGGTGTACATATAAGCTATTATAT [XGTACX_site118] | 8.59 ± 0.35
83 | CATATATAAAATATATGTACTTATAGAACATAATTT [XGTACX_site1936] | 8.1 ± 0.26
84 | TAATAAGTATAAAATAGTACATATAAATATATCAAA [XGTACX_site8834] | 8.48 ± 0.38
85 | AGGAATAAATAATTAACACACACAATCTTTTTTTTT [CACACA_site9027] | 8.39 ± 0.31
86 | ATAATATTAGTAAACACACTCAAATTATATATGATA [CACACA_site5721] | 8.28 ± 0.59
87 | AAATAAAAAAACTATTGTACTGAATACAAATTAAAT [XGTACX_site3793] | 8.52 ± 0.35
88 | ACTTTTTCACATAAAAATGATCCGATTAGTAATAAT [XGTACX_negctrl_site248] | 8.49 ± 0.59
